In US20170355736A1, “MORTALIN PEPTIDES AND ANTIBODIES AND USES THEREOF FOR INHIBITING MORTALIN ACTIVITY AND TREATING A DISEASE ASSOCIATED WITH A PATHOLOGICAL CELL” (Ramot at Tel-Aviv University Ltd., priority 2014, published 2017):
At least one peptide structure holds a part that was inferred or is arguable (an end, a ring closure or a residue). Some compounds share one wording; it may come from a single statement. Ends that are not written are not given here.

Experiments:
[1] = target: mortalin-C9 binding (Homo sapiens, UniProt P02748); assay: ELISA of mortalin binding to C9 with or without mortalin peptides; design: key to Mortalin-C9 binding: ↑: enhance; ↓: inhibit; ↑↓: effect depends on dose/time; —: no effect; conditions: for effect on mortalin-C9 binding: peptides at 170 μM, compared with positive control (C9 and mortalin without peptide); for Mortalin-C9 binding: summary of in vitro effects
Sequence of mortalin-C9 binding (P02748 22-559): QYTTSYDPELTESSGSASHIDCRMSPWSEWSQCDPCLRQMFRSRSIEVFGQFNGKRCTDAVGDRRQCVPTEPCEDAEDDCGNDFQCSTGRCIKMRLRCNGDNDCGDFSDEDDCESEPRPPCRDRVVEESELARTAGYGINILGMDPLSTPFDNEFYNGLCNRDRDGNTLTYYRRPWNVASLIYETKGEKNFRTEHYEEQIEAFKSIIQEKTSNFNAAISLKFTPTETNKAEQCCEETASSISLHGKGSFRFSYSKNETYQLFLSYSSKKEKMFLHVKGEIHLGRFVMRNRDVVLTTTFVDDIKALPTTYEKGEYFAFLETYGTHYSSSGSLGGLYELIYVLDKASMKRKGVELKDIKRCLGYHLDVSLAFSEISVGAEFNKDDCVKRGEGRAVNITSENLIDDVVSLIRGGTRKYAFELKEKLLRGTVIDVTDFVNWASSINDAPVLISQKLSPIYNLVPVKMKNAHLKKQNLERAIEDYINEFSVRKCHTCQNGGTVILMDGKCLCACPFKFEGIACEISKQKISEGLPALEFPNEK
Procedure: FIG. 1 is a histogram depicting results of ELISA (enzyme-linked immunosorbent assay) which detected binding of mortalin to C9 in the presence or absence of various mortalin peptides. Purified human C9 (0.057 μM) was attached overnight at 4° C. to wells of a 96-wells plate and then the excess of C9 was washed. Following, His-tagged recombinant mortalin (0.007 μM) was added to the wells for 1 hour at 37° C. with or without the designated peptides (each at a concentration of 170 μM), which were dissolved in 1% BSA (bovine serum albumin). Following incubation with the mortalin and peptides the wells were washed, treated for 1 hour at 37° C. with mouse anti-His antibody (diluted 1:1000) followed by 1 hour incubation at room temperature with peroxidase-labeled goat anti-mouse IgG (diluted 1:10,000), developed with O-phenylenediamine (OPD) and analyzed by an ELISA reader at 492 nm. The effect of mortalin peptides on C9-mortalin binding is shown by the increase or decrease as compared to the binding of the positive control in the absence of the mortalin peptide (first bar on the left).
Methods of detecting the binding between mortalin and C9 are known in the art [Pilzer et al. Int Immunol (2005) 17:1239-1248; Pilzer et al. Int J Cancer (2010). 126:1428-1435 and Saar Ray et al. J Biol Chem. (2014) 289(21):15014-22; each of which is fully incorporated herein by reference in its entirety]. For example, the ability of the isolated peptide of some embodiments of the invention to inhibit binding of mortalin to C9 can be determined using a purified human C9 protein (e.g., SEQ ID NO:31) which is attached to the surface of an ELISA plate, and which is then incubated with a labeled mortalin protein (e.g., a Histidine (His)-tagged recombinant mortalin, e.g., SEQ ID NO:24) with or without the isolated peptide of some embodiments of the invention for about one hour at 37° C. After incubation of the C9 and mortalin, the excess of the labeled mortalin and of the peptide is removed by washing the plate, and the amount of labeled mortalin which is bound to the surface-attached C9 protein is determined using an anti-His antibody (e.g., a mouse anti-His antibody). It should be noted that the anti-His antibody can be directly labeled or can be conjugated to an identifiable moiety, or it can be further incubated with a secondary antibody such as a peroxidase conjugated goat anti-mouse antibody. In either case, the binding of mortalin to C9 can be compared to a positive control, e.g., to the binding of mortalin protein (full polypeptide such as depicted in SEQ ID NO:24) to C9 in the absence of the isolated peptide of some embodiments of the invention.
The effect of the peptides on mortalin-C9 binding—The potential of the peptides to inhibit C9-mortalin binding was evaluated in an ELISA assay in which C9 was attached overnight to wells of 96 wells plate, followed by addition of the peptide and then His-tagged recombinant mortalin. The amount of bound mortalin was quantified colorimetrically as described in description of the drawings section with respect to FIG. 1. Wells containing only C9 and mortalin without peptide served as positive control.

[2] = target: Purified human C9 (Homo sapiens, UniProt P02748); assay: Zinc-induced C9 polymerization, SDS-PAGE/Coomassie; assay type: biochemical; design: key to C9 polymerization: ↑: enhance; ↓: inhibit; ↑↓: effect depends on dose/time; —: no effect; conditions: for effect on C9 polymerization: peptides 1 mM, mortalin 1.4 mM, 42 μM ZnCl2, 2 hours, 37° C., poly C9 band on gel; for C9 polymerization: summary of in vitro effects
Sequence of Purified human C9 (P02748 22-559): as above
Procedure: FIGS. 2A-B are Coomassie blue stained gels depicting inhibition of C9 polymerization by mortalin or the isolated mortalin peptides. Purified human C9 ([…]) was mixed for 15 minutes at 37° C. with BSA ([…]) as control (lanes marked as “BSA”), mortalin ([…], lanes marked as “mot”) or mortalin peptides (1 mM, lanes marked by “p” and the indicated peptide numbers) that were freshly dissolved in Tris buffered saline (TBS); and then incubated with 42 μM ZnCl2 for 2 hours at 37° C. The first lane on the left, marked “C9” refers to a positive control of the purified C9 without BSA, without mortalin or without the isolated peptides. Samples were subjected to SDS-PAGE on a 2.5-14% acrylamide gradient gel and stained with Coomassie blue. The bands of poly C9 appearing on the top part of the gel are indicated. FIGS. 2A and 2B represent two independent experiments.
The effect of the peptides on C9 polymerization—Formation of the complement membrane pores requires that multiple C9 molecules undergo polymerization and generate the doughnut-shape transmembrane complex; thus the effect of the peptides on C9 polymerization was tested. C9 polymerization occurs during C5b-9 generation [Podack and Tschopp, Proc Natl Acad Sci USA. (1982) 79(2):574-8]. Purified C9 polymerizes after a prolonged incubation at 37° C. or within 2 hours in the presence of metal ions such as zinc [Tschopp, J Biol Chem. (1984) 259(16):10569-73]. C9 was mixed with peptides and 42 μM ZnCl2 for 2 hours and the samples were analyzed by SDS-PAGE, on a 2.5-14% acrylamide gradient gel. The large (>1,000 kDa) polymerized C9 band (poly C9) appears on the top part of the gel (FIGS. 2A and 2B). […] Peptide no.

[3] = system: leukemia and lymphoma cell lines; assay: Direct cell killing / direct toxicity (complement independent), overall statement; assay type: cell-based; design: key to Direct toxicity: ↑: enhance; ↓: inhibit; ↑↓: effect depends on dose/time; —: no effect; conditions: for cell killing effect on leukemia and lymphoma cell lines: Raji, Ramos and Z-138, 24 hours, peptides with added TAT sequence at C-terminal, PI; for Direct toxicity: summary of in vitro effects, complement independent cytotoxicity, cell lines and primary B-CLL cells
Procedure: The toxic effect of these peptides was tested on 3 leukemia/lymphoma cell lines Raji (FIG. 5), Ramos (FIG. 6) and Z-138 (FIG. 7). The cells were treated for 24 hours with the peptides and cell death was determined by propidium iodide labeling and analysis by flow cytometry.
In summary, Table 6 below illustrates the relative effects of some of the peptides on mortalin-C9 binding, C9 polymerization, complement-dependent cytotoxicity and complement independent cytotoxicity (direct toxicity).

| Sequence | effect on mortalin-C9 binding [1] | Mortalin-C9 binding [1] | effect on C9 polymerization [2] | C9 polymerization [2] | cell killing effect on leukemia and lymphoma cell lines [3] | Direct toxicity [3] |
| --- | --- | --- | --- | --- | --- | --- |
| FKDQLPADECNKLKEEISKMRELLA [Peptide 16] | inhibitors of mortalin-C9 binding | ↓ | inhibited C9 polymerization but significantly less than mortalin | ↓ | significant cell killing effect | ↑ |
| MVKNAEKYAEEDR [Peptide 14, MVKNAEKYAEEDR] | inhibitors of mortalin-C9 binding | ↓ | inhibited C9 polymerization but significantly less than mortalin | ↓ | significant cell killing effect | ↑↑ |
| PSQIGAFVLMKMKETAENYL [Peptide 2] | inhibitors of mortalin-C9 binding | ↓ | inhibited C9 polymerization but significantly less than mortalin | — | significant cell killing effect | ↑↑↑ |
| RAQFEGIVTDLIRRTIA [Peptide 10, RAQFEGIVTDLIRRTIA] | inhibitors of mortalin-C9 binding | ↓ | inhibited C9 polymerization but significantly less than mortalin | ↓ | significant cell killing effect | ↑↑ |
